# Measured values taken from patent US20220267438A1 (Janssen / Centocor, published 2022).
# T1: BCMW37 (recombinant human BCMA antigen) (human, UniProt Q02223 1-54, limits assumed)
# T1 construct: also called BCMA BCMW37 chain; human BCMA (SPR antigen)
# T1 sequence (looked up): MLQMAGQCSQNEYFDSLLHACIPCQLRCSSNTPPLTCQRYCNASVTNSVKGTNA
# B1: BGCB491 (other)
# heavy: QVQLQQSGPRLVRPSQTLSLTCAISGDSVFNNNAAWSWIRQSPSRGLEWLGRTYYRSKWLYDYAVSVKSRITVNPDTSRNQFTLQLNSVTPEDTALYYCARGYSSSFDYWGQGTLVTVSSASTKGPSVFPLAPSSKSTSGGTAALGCLVKDYFPEPVTVSWNSGALTSGVHTFPAVLQSSGLYSLSSVVTVPSSSLGTQTYICNVNHKPSNTKVDKKVEPKSCDKTHTCPPCPAPEAAGGPSVFLFPPKPKDTLMISRTPEVTCVVVSVSHEDPEVKFNWYVDGVEVHNAKTKPREEQYNSTYRVVSVLTVLHQDWLNGKEYKCKVSNKALPAPIEKTISKAKGQPREPQVYTLPPSREEMTKNQVSLSCAVKGFYPSDIAVEWESNGQPENNYKTTPPVLDSDGSFFLVSKLTVDKSRWQQGNVFSCSVMHEALHNRFTQKSLSLSPGKGGGGSGGGGSGGGGSGGGGS[letters of about 100 residues not shown]QFPHTFGQGTKLEIKGGSEGKSSGSGSESKSTGGSQVTLKESGPVLVKPTETLTLTCTVSGFSLTNIRMSVSWIRQPPGKALEWLAHIFSNDEKSYSTSLKSRLTISRDTSKSQVVLTLTNVDPVDTATYYCARMRLPYGMDVWGQGTTVTVSS
# light: QSALTQPASVSGSPGQSITISCTGTSSNIGTYKFVSWYQQHPDKAPKVLLYEVSKRPSGVSSRFSGSKSGNTASLTISGLQAEDQADYHCVSYAGSGTLLFGGGTKLTVLGQPKAAPSVTLFPPSSEELQANKATLVCLISDFYPGAVTVAWKADSSPVKAGVETTTPSKQSNNKYAASSYLSLTPEQWKSHRSYSCQVTHEGSTVEKTVAPTECS
# chain: EIVLTQSPGTLSLSPGERATLSCRASQSISSSFLTWYQQKPGQAPRLLIYGASSRATGIPDRFSGGGSGTDFTLTISRLEPEDFAVYYCQHYGSSPMYTFGQGTKLEIKGGSEGKSSGSGSESKSTGGS[letters of about 100 residues not shown]DEGYSSGHYYGMDVWGQGTTVTVSSEPKSSDKTHTCPPCPAPEAAGGPSVFLFPPKPKDTLMISRTPEVTCVVVSVSHEDPEVKFNWYVDGVEVHNAKTKPREEQYNSTYRVVSVLTVLHQDWLNGKEYKCKVSNKALPAPIEKTISKAKGQPREPQVYTLPPSREEMTKNQVSLWCLVKGFYPSDIAVEWESNGQPENNYKTTPPVLDSDGSFFLYSKLTVDKSRWQQGNVFSCSVMHEALHNHYTQKSLSLSPGK
# notes: Trispecific IgG1 antibody (L234A, L235A, D265S); Heavy chain 1 = anti-CD3 (CD3B376) Fab heavy chain, hole and RF mutations, with C-terminal anti-GPRC5D scFv (GC5B680); Heavy chain 2 = anti-BCMA scFv (BCMB519) - Fc knob; also called JNJ-79635322; BCMA×GPRC5D×CD3 trispecific mAb
# B2: BGCB463 (other)
# heavy: QVQLQQSGPRLVRPSQTLSLTCAISGDSVFNNNAAWSWIRQSPSRGLEWLGRTYYRSKWLYDYAVSVKSRITVNPDTSRNQFTLQLNSVTPEDTALYYCARGYSSSFDYWGQGTLVTVSSASTKGPSVFPLAPSSKSTSGGTAALGCLVKDYFPEPVTVSWNSGALTSGVHTFPAVLQSSGLYSLSSVVTVPSSSLGTQTYICNVNHKPSNTKVDKKVEPKSCDKTHTCPPCPAPEAAGGPSVFLFPPKPKDTLMISRTPEVTCVVVSVSHEDPEVKFNWYVDGVEVHNAKTKPREEQYNSTYRVVSVLTVLHQDWLNGKEYKCKVSNKALPAPIEKTISKAKGQPREPQVYTLPPSREEMTKNQVSLSCAVKGFYPSDIAVEWESNGQPENNYKTTPPVLDSDGSFFLVSKLTVDKSRWQQGNVFSCSVMHEALHNRFTQKSLSLSPGK
# light: QSALTQPASVSGSPGQSITISCTGTSSNIGTYKFVSWYQQHPDKAPKVLLYEVSKRPSGVSSRFSGSKSGNTASLTISGLQAEDQADYHCVSYAGSGTLLFGGGTKLTVLGQPKAAPSVTLFPPSSEELQANKATLVCLISDFYPGAVTVAWKADSSPVKAGVETTTPSKQSNNKYAASSYLSLTPEQWKSHRSYSCQVTHEGSTVEKTVAPTECS
# chain: [letters of about 100 residues not shown]QFPHTFGQGTKLEIKGGSEGKSSGSGSESKSTGGSQVTLKESGPVLVKPTETLTLTCTVSGFSLTNIRMSVSWIRQPPGKALEWLAHIFSNDEKSYSTSLKSRLTISRDTSKSQVVLTLTNVDPVDTATYYCARMRLPYGMDVWGQGTTVTVSSEPKSSDKTHTCPPCPAPEAAGGPSVFLFPPKPKDTLMISRTPEVTCVVVSVSHEDPEVKFNWYVDGVEVHNAKTKPREEQYNSTYRVVSVLTVLHQDWLNGKEYKCKVSNKALPAPIEKTISKAKGQPREPQVYTLPPSREEMTKNQVSLWCLVKGFYPSDIAVEWESNGQPENNYKTTPPVLDSDGSFFLYSKLTVDKSRWQQGNVFSCSVMHEALHNHYTQKSLSLSPGKGGSEGKSSGSGSESKSTGGSEIVLTQSPGTLSLSPGERATLSCRASQSISSSFLTWYQQKPGQAPRLLIYGASSRATGIPDRFSGGGSGTDFTLTISRLEPEDFAVYYCQHYGSSPMYTFGQGTKLEIKGGSEGKSSGSGSESKSTGGS[letters of about 100 residues not shown]DEGYSSGHYYGMDVWGQGTTVTVSS
# notes: Trispecific IgG1 antibody (L234A, L235A, D265S); Heavy chain 1 = anti-CD3 (CD3B376) Fab heavy chain with hole and RF mutations; also called BGCB463.003; BGCB463.004
# Tests used:
# [1] = molecular target: T2, human CD3 (CD3ε of the TCR/CD3 complex) on primary human pan T cells (human, UniProt P07766); assay: flow cytometry, pan T cells, donor D316144; estimated, fixed saturation point from bioinformatic extrapolation
# T2 construct: whole, on cells; On T cells CD3ε stands in the whole TCR/CD3 complex
# Method: Flow cytometry was used to evaluate the CD3 arm (i.e., CD3B376) binding of BGCB491 to CD3⁺ pan T cells from 7 different healthy human. Cell-based EC₅₀ for CD3B376 could not be determined due to lack of saturation kinetics at 1 hour (FIG. 26). Bioinformatic extrapolation was performed (FIG. 27) using the CD3B376×Null control antibody (i.e., GCDB381) molecule, which saturates within 2 μM top concentration dose-response to constrain the top of the non-linear regression curve to generate a full curve that enables estimation of ECₓ values (Table 21).
# [2] = molecular target: T2, human CD3 (CD3ε of the TCR/CD3 complex) …; assay: flow cytometry, T cells; fixed point extrapolation because curves were unsaturated at 2 µM
# [3] = molecular target: T3, CD3W200, recombinant CD3εγ heterodimer construct (human, UniProt P07766 22-118; P09693 23-103); assay: SPR, CD3 binding after physiological stress
# T3 construct: also called human CD3 (SPR antigen for BGCB491)
# [4] = molecular target: T1, BCMW37 (recombinant human BCMA antigen); assay: SPR, BCMA binding after chemical oxidation
# [5] = molecular target: T3, CD3W200, recombinant CD3εγ heterodimer …; assay: SPR, CD3 binding after pH 5.0 stress
# [6] = molecular target: T4, human GPRC5D (G-protein coupled receptor family C group 5 member D) on cells (human, UniProt Q9NZD1 1-345); assay: flow cytometry on K562 cells expressing human GPRC5D, 1 hr 37 C, Run 1
# T4 construct: Target on H929 or MM.1R BCMA knockout cells, K562 cells expressing human GPRC5D and HEK293 cells of the cell microarray
# T4 sequence (Q9NZD1 whole entry): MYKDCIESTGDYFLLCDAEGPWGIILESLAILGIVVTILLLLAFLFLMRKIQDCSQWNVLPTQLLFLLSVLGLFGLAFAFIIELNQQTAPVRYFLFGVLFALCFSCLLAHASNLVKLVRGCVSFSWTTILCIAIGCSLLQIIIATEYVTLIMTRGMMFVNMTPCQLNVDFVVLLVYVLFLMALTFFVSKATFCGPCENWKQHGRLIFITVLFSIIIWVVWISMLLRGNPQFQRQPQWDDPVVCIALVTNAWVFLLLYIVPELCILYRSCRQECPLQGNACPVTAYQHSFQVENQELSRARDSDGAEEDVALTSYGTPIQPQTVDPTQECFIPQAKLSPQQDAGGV
# Method: (§1) FIGS. 9A-E. BGCB463 (circles) or negative control B23B251 (triangles) were all incubated with K562 cells expressing human GPRC5D (FIG. 9A), human BCMA (FIG. 9B), cynomolgus GPRC5D (FIG. 9C) or cynomolgus BCMA (FIG. 9D) for 1 hr at 37° C. at a starting concentration of 2 μM. After secondary detection with AF647-anti-human IgG, the MFI signal was analyzed to generate an EC₅₀ and EC₉₀ (FIG. 9E). Data are representative of two independent experiments.
# [7] = molecular target: T2, human CD3 (CD3ε of the TCR/CD3 complex) …; assay: flow cytometry on Pan T cells, donor D326589, 1 hr at 37 C, AF647 secondary detection
# Method: (§2) For binding of BGCB463 to human and cynomolgus Pan T cells, three human donors (Hemacare) were selected, quickly thawed, resuspended, and aliquoted into a 96-well plate at 1×10⁶ cells/mL. Cells were then washed, Fc blocked if necessary (Innovex), and stained with viability dye (Invitrogen). BGCB463 and its corresponding isotype (B23B251) were diluted in complete media to an initial concentration of 2 μM and 1:3 serial dilutions in duplicate were performed for a dose-response curve. The cells were incubated with molecules at 4° C. or 37° C. for 1 hour. When necessary, incubation with 90% human serum (Sigma) was also performed as described above.
# (§3) First, FACS-based binding for GPRC5D and BCMA binding arms of the trispecific molecule was determined by measuring the effective concentration (EC) range from a dose-response curve using a 4-parameter fit at 37° C. for 1 hr. This was assessed using an H929 suite of cells (WT, GPRC5D-KO, BCMA-KO, and GPRC5D/BCMA KO), and a similar MM.1R suite. Cell based EC₅₀ is approximately 13 nM for WT H929 (FIGS. 2A-2D, Table 7) and 2.4 nM for WT MM.1R (FIGS. 3A-3D, Table 8). […] Next, cell-based EC₅₀ was determined for the CD3-binding Fab arm using purified Pan T cells from three random donors. […] Next, dose responsive binding was assessed at 4° C. to remove any potential biological effects. […]
# [8] = molecular target: T2, human CD3 (CD3ε of the TCR/CD3 complex) …; assay: flow cytometry, human pan T cells, Donor 1, 1 h 37C; Run 1
# Method: as §2, §3
# [9] = molecular target: T5, cynomolgus GPRC5D on K562 cells (cynomolgus monkey); assay: flow cytometry on K562 cells expressing cynomolgus GPRC5D, 1 hr 37 C, Run 1
# T5 construct: whole, on cells; also called cyno GPRC5D
# Method: as §1
# The GPRC5D (i.e., GC5B680) and BCMA binding arms were assessed for cross-reactivity to cynomolgus monkey as part of the BGCB463 molecule, which uses the identical binding arms as BGCB491. Cross reactivity to cynomolgus monkeys was profiled for both target-binding scFv arms using FACS-based cell binding at 37° C. for 1 hour with K562 stably expressing human or cynomolgus monkey GPRC5D or BCMA. The cell-based EC₅₀ value for the GC5B680 scFv arm was approximately 30 nM against human GPRC5D-expressing cells and about 10-fold weaker (approximately 400 nM) on cynomolgus monkey GPRC5D-expressing cells.
Binder,EC50 [1],EC50 [2],Kd [3],Kd [4],Kd [5],EC50 [6],EC50 (read off the curve) [7],EC50 [8],EC50 [9]
B1,4990 nM,3400 nM,19.3 nM,0.537 nM,22.6 nM,,,,
B2,,,,,,12.5 nM,~100 nM,770 nM,435 nM
